Laboratory results taken from PubChem BioAssay AID1159614 (National Center for Advancing Translational Sciences (NCATS), 2016).
Screen size: about 45,000 compounds; about 65 (0.1%) were called active. Calls come from the whole dose curve; as a rule, active = well fitted activation curve with a large enough effect; inconclusive = small, poorly fitted or top-dose-only effect; inactive = no such curve, though single readings can be large or run the other way. The list shows a part of the results.

Biological target: Galactocerebrosidase (Homo sapiens) (UniProt P54803)
Sequence of UniProt P54803 (P54803 whole entry, looked up): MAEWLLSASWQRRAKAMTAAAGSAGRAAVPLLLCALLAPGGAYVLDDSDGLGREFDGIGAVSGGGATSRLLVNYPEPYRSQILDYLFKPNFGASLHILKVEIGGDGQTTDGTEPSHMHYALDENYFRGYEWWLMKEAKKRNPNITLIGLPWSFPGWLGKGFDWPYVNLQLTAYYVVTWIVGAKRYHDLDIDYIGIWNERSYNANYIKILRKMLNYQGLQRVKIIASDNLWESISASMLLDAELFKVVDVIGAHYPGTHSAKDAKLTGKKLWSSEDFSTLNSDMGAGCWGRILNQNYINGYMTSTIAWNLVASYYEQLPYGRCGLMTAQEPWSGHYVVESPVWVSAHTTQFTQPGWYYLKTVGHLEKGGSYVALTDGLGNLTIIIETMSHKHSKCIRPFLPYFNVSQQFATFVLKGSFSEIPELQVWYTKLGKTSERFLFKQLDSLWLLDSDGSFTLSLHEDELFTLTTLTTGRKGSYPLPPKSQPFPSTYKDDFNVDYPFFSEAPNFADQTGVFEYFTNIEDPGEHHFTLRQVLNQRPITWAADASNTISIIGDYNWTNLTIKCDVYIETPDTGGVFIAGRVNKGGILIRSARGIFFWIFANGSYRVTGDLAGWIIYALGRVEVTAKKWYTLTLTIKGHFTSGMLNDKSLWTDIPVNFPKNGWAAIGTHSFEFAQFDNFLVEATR
Assay: A Novel Cell-Based Assay to Identify Small Molecules for B -Galactocerebrosidase; note: 0% is about no effect; nearly all actives have a fitted effect of over 65% in size
Conditions: 145M-Twi-hGALC-G270D cells (Twitcher mouse brain line with human GALC G270D), HMU-beta-Gal fluorescence, 48 h; series mostly up to 57.5 µM; activation: at the top concentration
In short: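 Fluorogenic HMU-b-Gal hydrolysis (0.1 mM final, pH 5.2 citrate-phosphate with 1 mg/mL sodium taurocholate; carbonate stop buffer) measures mutant GALC activity after compound treatment of live 145M-Twi Twitcher brain cells stably carrying human GALC-G270D, with wild-type GALC line alongside; activation sought.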

activation, inactive:
COc1ccc(OCc2nc3ccccc3n2C(C)c2ccccc2)cc1 (stereo unspecified) -11.9%
CCOc1cccc2cc(-c3cn4c(n3)sc3cc(C)ccc34)c(=O)oc12 -5.87%
CCOc1ccccc1NC(=O)CSc1nc2c(c(=O)[nH]1)CCC2 -19.9%
O=C(NCc1ccc(Cl)cc1)c1ccc(CSCc2cccc(Cl)c2)o1 -38%
O=C(Cc1ccccc1)N(Cc1cccnc1)c1nc2c(F)cccc2s1 -5.79%
O=C(Nc1ccc(Cl)cc1F)c1oc(=O)c2ccccc2c1-c1ccccc1 -12.3%
Cc1ccccc1OC(=O)c1snnc1C -11.6%
Cc1cc(Br)ccc1NC(=O)C(Cc1ccccc1)NS(=O)(=O)c1ccc(Br)s1 (stereo unspecified) -15.9%
CCOc1cc(C2Nc3ccccc3-c3nnc(SCc4ccccc4)nc3O2)ccc1OC (stereo unspecified) -2%
CCC(C(=O)Nc1ccc(C(=O)OC)cc1)n1nc(-c2ccc(C)cc2)c2c(c1=O)CCCC2 (stereo unspecified) -17.7%
Cc1cc(C)c2c(CC(=O)Nc3ccc(S(=O)(=O)N4CCCC(C)C4)cc3)coc2c1 (stereo unspecified) -17.3%
Nc1nc(Nc2cccc(C(F)(F)F)c2)sc1C(=O)c1ccccc1 -8.28%
Cc1ccc(OCC(=O)Nc2cccc(OCc3cc(=O)n4ccccc4n3)c2)cc1C -9.65%
COc1cccc(CNC(=O)c2cc3cccc4c3n2CC(C)S4)c1OC (stereo unspecified) -26.9%
C#CCn1c(COc2ccccc2C)nc2ccccc21 -11%
COc1cc(OC)c(OC)cc1CNCCSc1nnnn1-c1ccccc1 -1.8%
Cn1c(CNC(=O)CSc2n[nH]c(-c3ccccc3Cl)n2)nc2ccccc21 3.74%
Cc1cccc(N(C)C(=O)CN2C(=O)COc3ccc(S(=O)(=O)N4CCCCCC4)cc32)c1 -8.66%
CCN(Cc1ccccc1)C(=O)C1CCN(c2ncnc3c2nc2n3CCCCC2)CC1 8.28%
COc1cc2c(=O)c(S(=O)(=O)c3ccc(F)cc3)cn(Cc3ccccc3C)c2cc1OC -1.39%
Cc1ccc(-n2cc(-c3ccccc3)c3c(NC4CCCC4)ncnc32)cc1 -9.51%
Cc1ccc(-c2noc(-c3ccc(N4CCC(C)CC4)c([N+](=O)[O-])c3)n2)cc1 -11.7%
Cc1c(C(=O)N2CCC(c3nc4ccccc4s3)CC2)oc2cc(Br)ccc12 -13.8%
COc1cc(C2c3c(oc4cc(C)c(C)cc4c3=O)C(=O)N2CCCN2CCOCC2)ccc1O (stereo unspecified) -5.39%
CC(O)COc1ccccc1 (stereo unspecified) -17.7%
CCOC(=O)c1cc(S(=O)(=O)Nc2ccc(Br)c(C)c2)[nH]n1 -13.7%
Cc1ccc2c(c1)c1c(c(=O)n(-c3cccc(Cl)c3)c(=O)n1CC(=O)N1CCCC1)n2C -6.79%
CC(C)Cc1ccc(C(C)C(=O)OCc2ccccn2)cc1 (stereo unspecified) -7.93%
CCCNC(=O)c1cc2nc(-c3ccc(Br)cc3)cc(C(F)(F)F)n2n1 -7.28%
CCOc1cccc2cc(-c3nc4sc5c(c4c(=O)[nH]3)CCC(C(C)(C)C)C5)c(=O)oc12 (stereo unspecified) -13.2%
CCOc1ccc(-n2c(SCc3nc(-c4ccc(OC)cc4)no3)nnc2-c2ccncc2)cc1 -10.2%
COc1ccc(Br)cc1CNC(=O)c1cc(=O)[nH]c2ccc(S(=O)(=O)N3CCCC3)cc12 -15.1%
Cc1nc2ccccc2n1CCc1nc2c3ccccc3nc(SCc3cccc(F)c3)n2n1 -9.17%
CC1=C(C(=O)Nc2ccccc2)C(c2ccccc2C)n2ncc(C(=O)Nc3ccccc3)c2N1 (stereo unspecified) 3.59%
Cc1cc(C)cc(OCCn2c(C3CC(=O)N(c4ccccc4Cl)C3)nc3ccccc32)c1 (stereo unspecified) -44.4%
CCOc1ccccc1NC(=O)Cn1c(=O)n(CCC(C)C)c(=O)c2cccnc21 -8.44%
O=C(COC(=O)c1cc(-c2cccs2)nc2ccccc12)c1ccc(Br)cc1 -21.7%
Cn1c(=O)c2sccc2n2c(CCC(=O)NCc3ccc(F)cc3)nnc12 -14.2%
COc1ccc(CCNC(=O)CCn2c(=O)c3ccccc3n(CC(=O)Nc3ccccc3F)c2=O)cc1OC 2.68%
Cc1ccc2c(=O)c(C(=O)c3ccccc3)cn(CC(=O)Nc3ccc4c(c3)OCCO4)c2n1 -14.5%
Cn1c(=O)oc2cc(S(=O)(=O)N3CCC(C(=O)NCc4ccccc4Cl)CC3)ccc21 -0.24%
Cc1ccc(NC(=O)Cn2nc(C)c3nn(-c4ccc(Cl)cc4)c(C)c3c2=O)cc1C -7.05%
O=C1CN(C(=O)Cc2ccc(F)cc2)C(c2ccccc2)c2cc(Br)ccc2N1 (stereo unspecified) -16.7%
CCCCN(CC)CCNC(=O)Cn1cnc2sc(C)c(S(=O)(=O)N3CCC(C)CC3)c2c1=O -26.2%
COc1ccc(Cn2c(C(=O)O)c(CNCc3cccc(OC)c3)c3ccc(C)cc32)cc1 -21%
O=C1c2oc3ccccc3c(=O)c2C(c2ccc(Br)cc2)N1c1ccccn1 (stereo unspecified) -6.4%
CCOc1ccc(NC(=O)CC2C(=O)N(c3ccccc3)C(=O)N2CCc2ccc(OC)cc2)cc1 (stereo unspecified) -13.7%
COC(=O)c1cnn(-c2ccc(C(=O)Nc3cccc(C(C)=O)c3)cc2)c1N -10.5%
CCOC(=O)c1[nH]c(C)c(CCC(=O)Nc2c(C)cc(C)cc2C)c1C -5.42%
CCCn1c(SCc2nc(-c3ccccc3C)no2)nnc1-c1ccc(Cl)cc1 -19.4%
Cc1cccc(OCc2cc(=O)n3c(-c4ccccc4)csc3n2)c1C -3.7%
COc1ccc(N2C(=O)CSC23C(=O)N(CC(=O)NC2CCCCC2)c2ccccc23)cc1 (stereo unspecified) -26.6%
Cc1cccc(N2CCN(C(=O)C3CCC(CNS(=O)(=O)c4ccc(Br)s4)CC3)CC2)c1C (stereo unspecified) -12.5%
CCc1nn(CC(=O)N2CCN(c3cccc(C)c3C)CC2)c(=O)c2cc3occc3n12 7.26%
CC(=O)c1ccc(N2CCN(S(=O)(=O)c3c(C)nc4sc(C)cn4c3=O)CC2)cc1 -0.349%
CCn1cc(C(=O)NCCCOC(C)C)c(=O)c2cc(S(=O)(=O)N3CCc4ccccc4C3)ccc21 -22%
O=C(CN1C(=O)CCSc2ccc(S(=O)(=O)N3CCCC3)cc21)Nc1ccccc1 -14.7%
CCC(Oc1ccccc1)C(=O)Nc1ccc(O)c(-c2nc3cc(C)ccc3o2)c1 (stereo unspecified) -14.9%
CCC(C(=O)Nc1ccccc1C(=O)OC)n1c(C)c2cnn(-c3ccccc3)c(=O)c2c1C (stereo unspecified) 4.18%
CCc1nnc(NC(=O)c2nc(S(=O)(=O)Cc3cccc(C)c3)ncc2Cl)s1 -17%
NC(=O)CSc1oc(-c2ccco2)nc1S(=O)(=O)c1ccc(Br)cc1 -24%
CCCCn1cc(S(=O)(=O)c2ccc(C)c(C)c2)c(=O)c2cc(F)c(N3CCN(C)CC3)cc21 -9.39%
Cn1c(CN2CCCCC2)nc2cc(NC(=O)c3cccc(Br)c3)ccc21 -4.75%
Cn1c(NCCCCO)nc2c1c(=O)n(Cc1ccc(Cl)cc1)c(=O)n2C -4.73%
COc1ccc(NC(=O)Cn2c(=O)n(CCCC(=O)NCc3ccccc3OC)c(=O)c3ccccc32)cc1Cl -0.602%
COc1cccc(NC(=O)CCS(=O)(=O)c2ccc3c(c2)oc(=O)n3C)c1 -4.71%
O=C(Cn1cc(S(=O)(=O)Cc2ccccc2Cl)c2ccccc21)NCc1ccccc1Cl -26.5%
O=C(Nc1cccc(C(F)(F)F)c1)c1cc(-c2ccc3c(c2)OCCO3)on1 -10.7%
CCSc1nnc(NC(=O)c2cc(=O)c3cc(C)c(C)cc3o2)s1 -15.6%
CCOC(=O)c1c(-c2ccc(OC)cc2)oc2ccc(OCc3ccc(Br)cc3)cc12 -15.2%
COc1ccc(Cn2c(=O)c3cccnc3n(CC(=O)Nc3c(C)cc(C)cc3C)c2=O)cc1 -13.7%
CCc1cnc2c(c1SCC(=O)c1ccc(Cl)cc1)c(=O)n(C)c(=O)n2C -8.25%
CC(=O)c1ccc(N2CCN(C(=O)CCCCn3c(=O)[nH]c4ccsc4c3=O)CC2)cc1 -12.9%
CCOc1ccc(CNS(=O)(=O)c2cc3c(cc2C)NC(=O)CO3)cc1 -6.59%
Cc1cccc(NC(=O)CSc2nc3ccccc3nc2N2CCOCC2)c1C -11.5%
O=C(Nc1nnc2n1CCS2)c1ccccc1C(F)(F)F -19.3%
COc1cc(OC)cc(C(=O)N2CC(=O)Nc3ccc(Cl)cc3C2c2ccccc2)c1 (stereo unspecified) -6.55%
CC(C)CCNC(=O)CCC(=O)NNc1nc2ccccc2c2nc(-c3ccccc3)nn12 -7.08%
O=C(NCCc1ccc(F)cc1)C(=O)NCC(c1ccco1)S(=O)(=O)c1cccs1 (stereo unspecified) -12.9%
COc1ccc(S(=O)(=O)n2nc(C)c(S(=O)(=O)N3CCC(C)CC3)c2C)cc1OC 1.74%
Cc1ccc(N(CC(=O)Nc2ccc(Br)cc2)S(=O)(=O)c2cccs2)cc1 -10.6%
CCc1ccccc1NC(=O)c1ccc2nc(C(C)C)oc2c1 -14.6%
CCOc1ccc(NC(=O)C(=O)NCc2ccco2)cc1 -10.1%
COc1cccc(C(=O)NCC(c2ccc3c(c2)OCO3)N2CCOCC2)c1 (stereo unspecified) 1.46%
COc1ccc(C2=C(C)C(N3CCC(C(=O)Nc4ccc(F)cc4C)CC3)=NS2(=O)=O)cc1 -12.1%
O=C(Nc1ccc(Cl)c(C(F)(F)F)c1)C(Cc1ccccc1)NS(=O)(=O)c1ccc(Br)s1 (stereo unspecified) -11.9%
CC1(C)CC(=O)c2cc(C(=O)Nc3ccccc3Cl)c(=O)n(-c3ccc(Cl)cc3)c2C1 -8.09%
COc1ccc2cc3cc(C(=O)NCc4ccccc4OC)oc3nc2c1 -26.9%
O=C(NCc1ccccc1)C(=O)NCC(c1cccs1)S(=O)(=O)c1ccccc1 (stereo unspecified) -14.7%
CCOC(=O)c1ccc(NC(=O)c2cc3sccc3n2Cc2ccc(Cl)cc2)cc1 -13.4%
Cc1cccc(N2CCN(S(=O)(=O)c3csc(C(N)=O)c3)CC2)c1C -0.762%
Cc1cccc(NC(=O)CSc2nc(-c3ccco3)cc(C(F)(F)F)n2)c1C -2.99%
Cc1ccc(N(Cc2cccs2)C(=O)c2ccccc2Cl)cc1 -6.61%
COc1ccc(NC(=O)C(C)N(c2ccccc2)S(C)(=O)=O)cc1 (stereo unspecified) -17.1%
COc1ccc(C)cc1NC(=O)Cn1c(=O)n(Cc2nc(C)no2)c(=O)c2ccccc21 10.1%
O=C(Nc1nnc2n1CCS2)c1ccc(F)cc1F -26.7%
